# Assay results taken from the supplement of paper PMC3334620.
# In all, about 33,000 sequences were measured (“E-score (-0.5 to 0.5)”: median about -0.012, highest 2% from about 0.29 on). The list shows a part of the results.
# Biological target: T1, Ybr033w (UniProt P38073)
# T1 sequence: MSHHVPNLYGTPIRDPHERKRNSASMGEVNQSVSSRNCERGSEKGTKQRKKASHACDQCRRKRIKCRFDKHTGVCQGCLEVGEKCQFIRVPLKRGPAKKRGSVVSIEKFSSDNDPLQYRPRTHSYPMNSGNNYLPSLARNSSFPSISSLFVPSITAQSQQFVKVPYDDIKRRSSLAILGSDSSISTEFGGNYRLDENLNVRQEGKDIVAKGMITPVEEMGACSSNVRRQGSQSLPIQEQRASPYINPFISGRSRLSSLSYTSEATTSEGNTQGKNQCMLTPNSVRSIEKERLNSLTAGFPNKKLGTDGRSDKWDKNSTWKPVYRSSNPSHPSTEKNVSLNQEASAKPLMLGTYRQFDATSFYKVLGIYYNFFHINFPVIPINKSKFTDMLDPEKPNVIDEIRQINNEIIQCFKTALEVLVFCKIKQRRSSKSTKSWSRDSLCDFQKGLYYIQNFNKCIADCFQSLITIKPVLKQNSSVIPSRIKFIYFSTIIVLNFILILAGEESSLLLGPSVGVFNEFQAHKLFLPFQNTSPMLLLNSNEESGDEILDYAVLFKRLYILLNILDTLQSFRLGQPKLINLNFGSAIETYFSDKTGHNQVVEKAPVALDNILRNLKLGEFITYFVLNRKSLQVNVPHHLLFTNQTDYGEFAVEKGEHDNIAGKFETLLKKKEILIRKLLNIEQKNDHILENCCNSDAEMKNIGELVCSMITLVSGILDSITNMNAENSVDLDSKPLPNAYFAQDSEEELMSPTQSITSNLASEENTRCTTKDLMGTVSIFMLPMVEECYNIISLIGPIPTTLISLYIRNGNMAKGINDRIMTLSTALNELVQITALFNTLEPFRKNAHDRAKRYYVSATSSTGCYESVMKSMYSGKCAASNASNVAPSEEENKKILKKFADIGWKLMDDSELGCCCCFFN
# Assay: PBM E-score (8-mer binding enrichment) (E-score (-0.5 to 0.5)); higher = stronger / more preferred TF binding; most listed sequences are background and not binding sites
# Conditions: protein concentration: 200 nM; construct: GST-full length
# Experimental: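 Universal 'all 10-mer' protein binding microarrays (Agilent AMADID 015681) probed with GST-tagged S. cerevisiae TFs (full-length or DBD) made by in vitro transcription/translation (PURExpress), about 100-200 nM. Bound TF was detected with fluorescent anti-GST. Each ungapped 8-mer (which stands for itself and its reverse complement) is scored by the PBM enrichment score (E-score), a modified Wilcoxon-Mann-Whitney statistic from -0.5 to +0.5, computed with the Universal PBM Analysis Suite. Scale: above 0.35 generally sequence-specific binding.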
row,Sequence,PBM E-score
1,CTAAGCGC,-0.013
2,CAGCCTGC,-0.256
3,AAGGACGG,-0.244
4,ACAAGCAA,0.108
5,CGATGTAC,-0.00411
6,CCGTTCCG,0.034
7,ATGCACAC,0.0304
8,AATTCGTG,0.0162
9,CCTTGCTC,-0.0493
10,CAAAGCGA,0.0356
11,CATGATAG,0.156
12,CGAACTTC,0.0459
13,CTTTGTTC,0.111
14,AATACGGA,0.14
15,GGCGCCTA,-0.126
16,TAGAGCTA,-0.115
17,AACGAGAG,0.102
18,ATGGTACG,0.175
19,GGTCTCAC,-0.00348
20,AAGGGTGT,0.0499
21,AGATTAAT,0.284
22,CCCACGGA,-0.0113
23,CGCCCTAA,-0.194
24,ATAATCTA,0.294
25,GGCGTCCC,-0.247

row,Sequence,PBM E-score
1,ATAAGACC,0.0649
2,CAGCCAGC,-0.233
3,ACCGGCCT,-0.114
4,AACCTTGA,0.149
5,CGCCGGAA,0.153
6,GACACCAA,0.0677
7,CTGTCCCC,-0.319
8,CTTTAATC,0.145
9,CAAGGGAA,0.0793
10,GACTGTCA,-0.114
11,TATAGCAA,0.158
12,CAGAAGTC,-0.272
13,GTCTTAAA,-0.134
14,CACGAAAG,0.0311
15,AGTGAACC,0.0481
16,ACCGCGCC,-0.181
17,CATACGTC,0.0128
18,TGGCGGAA,0.032
19,TCCCCCAA,-0.271
20,CTGTGATC,-0.00745
21,GGATTTAA,0.0433
22,ACCGGAAA,0.151
23,AAATCTAT,0.26
24,GCCCATAC,-0.121
25,ATCCCCGC,-0.176

row,Sequence,PBM E-score
1,AAGCCAGG,-0.128
2,GATTATAC,0.208
3,ATAGGTGA,0.0541
4,CCGACCAG,-0.0851
5,TGCTGCAA,0.0605
6,CTACTCGC,-0.131
7,CAGAGCAA,-0.00344
8,CCGGAACC,-0.16
9,CTGGTGCA,-0.31
10,CATGACTC,-0.109
11,AAGACATG,-0.13
12,CAGCGCAA,-0.112
13,GGCCCAAA,-0.108
14,ACTGGACC,-0.196
15,ATCATGAA,0.171
16,GAATGTGC,-0.0303
17,CGTAAGCA,-0.192
18,AGATAAAC,0.216
19,CAGTCCAG,-0.238
20,CGGGCCAG,-0.274
21,CTTGGGGC,-0.271
22,CCATGTGC,-0.00281
23,AATGCAGT,0.0551
24,ACTGGATG,-0.0668
25,AGCCAGGG,-0.362

row,Sequence,PBM E-score
1,AGCCTCTC,-0.319
2,CAGCAGCG,-0.157
3,CCTGCGAC,-0.231
4,CCACACCG,-0.125
5,AGTTTAAA,0.247
6,ATGAGGGA,-0.0872
7,AGATGTTG,-0.145
8,AGCTAGCA,-0.0795
9,ACAGTTAT,0.0867
10,GACGCTCA,-0.0773
11,GCAGAAGC,-0.105
12,AGGTCGGG,-0.206
13,GACCCCAA,-0.189
14,TCACATAA,-0.00689
15,ACAATGTA,0.0452
16,GCCCGAGC,-0.192
17,ATCGTTAC,0.0005
18,GAGAGTAA,0.234
19,ACCACGCT,-0.118
20,ATAGGTTG,0.0182
21,GCAATACA,0.147
22,CAAGATGC,0.0894
23,ATATGCTG,-0.00315
24,GCCCGTTA,-0.266
25,CCCCCATA,-0.348

row,Sequence,PBM E-score
1,GCTTCGTA,0.0721
2,CATCAGGC,-0.0166
3,ACATCGCA,-0.126
4,CAAGTATC,0.0111
5,ATAAAATC,0.226
6,ACGAGGTG,-0.175
7,AGTCACTA,-0.0279
8,AAGCGCTA,0.0297
9,AATTAACT,0.219
10,AAGCGTAT,0.0673
11,CTCTACGC,-0.0464
12,CCTCGCCG,-0.354
13,CGCGGGCA,0.0744
14,CAGCCTAC,-0.00296
15,ACGGGCGC,-0.125
16,AAAGTCAG,-0.0675
17,CTTACGAC,-0.103
18,CGCATTAG,-0.165
19,CGTGCGAG,0.00923
20,AAAACAAG,0.174
21,CAAACTGC,0.151
22,GCCCCTAA,-0.251
23,AGCACGTA,-0.0864
24,CAGTGTGG,-0.227
25,GATACGCC,-0.0158

row,Sequence,PBM E-score
1,ACGCGTAC,0.0356
2,CTCGGTTC,-0.253
3,AGAGTGCT,0.0308
4,AAGTATTC,0.162
5,AACGCCTT,-0.185
6,ATTTGGCC,-0.0178
7,CAGCTCAA,-0.0471
8,CGGCGTTA,-0.0127
9,ATCATAAT,0.182
10,GGATATAC,0.205
11,ACAGCTCA,-0.146
12,TACGTAGA,0.0979
13,ATAGACAG,0.0501
14,CATTCCGC,-0.0174
15,AACTTGAA,0.251
16,CTTTCTGA,0.233
17,AAATCACC,0.243
18,AATCCGCT,0.00276
19,GTCAAAGA,0.133
20,GCACAGGA,-0.0603
21,CCCTGCGA,-0.224
22,CGTCGGCA,-0.101
23,CGTCGCAA,0.0396
24,CGGCGTGA,-0.0361
25,AGGGTGCA,-0.179

row,Sequence,PBM E-score
1,CCTACCAA,0.176
2,ATTCACGC,-0.107
3,ATGATGCC,-0.0229
4,AACCGGGC,-0.152
5,GAAGCCCA,-0.121
6,GATGTACC,0.101
7,GACTACGA,-0.0491
8,AGCTGTAA,-0.00663
9,CCGGTGCA,-0.213
10,TATGGTCA,-0.0118
11,CTCATATC,-0.048
12,CCTTTGAG,-0.0839
13,CCGGCAGG,-0.317
14,CCCTTCAG,-0.197
15,ATCTCAGA,-0.0847
16,CACCGATA,0.00975
17,AGTTATGG,0.163
18,GATAGACC,-0.0938
19,CACCAGGC,-0.18
20,ATAAAAAC,0.279
21,CACCTAAG,0.0973
22,TATAAGGA,0.224
